The values below come from the supplement of paper PMC6531468.

This is one part of the list. Read counts after selection give these values, which scatter widely. Each score is taken over the longer molecules that contain the sequence shown.

IMP3 KH3-4, sequence (chain, as listed by the source): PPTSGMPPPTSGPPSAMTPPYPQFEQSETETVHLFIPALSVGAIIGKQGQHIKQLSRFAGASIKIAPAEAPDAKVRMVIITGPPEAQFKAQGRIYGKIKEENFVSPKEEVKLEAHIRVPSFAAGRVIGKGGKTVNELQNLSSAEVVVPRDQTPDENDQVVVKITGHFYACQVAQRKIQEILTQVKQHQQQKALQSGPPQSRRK

The test system of this test is IMP3 KH3-4. Put plainly: 6-mer SELEX enrichment z-score vs GST control; IMP3 is the RNA-binding protein IGF2BP3; higher = more enriched by binding. The note with it: construct: KH3-4 (377-579); SELEX round: R4. On the procedure:
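SELEX-seq with GST-tagged IMP3 KH3-4 (Pro377-Lys579) and an N40 RNA pool, round 4. 6-mer z-score of sequence-tag enrichment normalised to the corresponding GST SELEX round; RNA k-mers written as DNA (T for U).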
Turning to GTTCGG, the “6-mer SELEX enrichment z-score” value is 0.486.

CTTACA: the “6-mer SELEX enrichment z-score” value is 0.777.

Take TAACTG: the “6-mer SELEX enrichment z-score” value was 0.562.

On to GTGACC, for which the “6-mer SELEX enrichment z-score” value was -1.1.

As to TCCACC, the “6-mer SELEX enrichment z-score” value is -1.23.

With TGCGCG, the “6-mer SELEX enrichment z-score” value worked out at 0.085.

As for ACTACC, the “6-mer SELEX enrichment z-score” value is -1.08.

Consider CAGTGG, for which the “6-mer SELEX enrichment z-score” value was determined as 0.36.

Regarding AGTGAA, the “6-mer SELEX enrichment z-score” value amounted to 0.16.

Regarding TCCTCG, the “6-mer SELEX enrichment z-score” value is -0.515.

Consider AGTCAA, for which the “6-mer SELEX enrichment z-score” value is 0.012.

For the sequence TGCACG, the “6-mer SELEX enrichment z-score” value came out at 0.442.

With CAACCT, the “6-mer SELEX enrichment z-score” value is -1.4.

For CTTTAT, the “6-mer SELEX enrichment z-score” value is 1.33.

As for CGTGAT, the “6-mer SELEX enrichment z-score” value was determined as 0.024.

Turning to TCGGGA, the “6-mer SELEX enrichment z-score” value is -0.16.
